From publication PMC8481267
Like-named read-outs stand apart in the source and are kept apart here. No constants are given. Whether binding was seen depends on the method and setting. In cells and extracts the contact can be indirect. Some entries that bind do so weakly or less than the wild type.

Sequences of proteins named here, by UniProt entry; tags and fusion partners are left off. A change or cut given only in a name is not applied to a line headed by its entry. A line that says so, or that is headed by a name, gives the form on record, which may keep a tag or linker. Residues count along the entry.
UniProt Q9Y572: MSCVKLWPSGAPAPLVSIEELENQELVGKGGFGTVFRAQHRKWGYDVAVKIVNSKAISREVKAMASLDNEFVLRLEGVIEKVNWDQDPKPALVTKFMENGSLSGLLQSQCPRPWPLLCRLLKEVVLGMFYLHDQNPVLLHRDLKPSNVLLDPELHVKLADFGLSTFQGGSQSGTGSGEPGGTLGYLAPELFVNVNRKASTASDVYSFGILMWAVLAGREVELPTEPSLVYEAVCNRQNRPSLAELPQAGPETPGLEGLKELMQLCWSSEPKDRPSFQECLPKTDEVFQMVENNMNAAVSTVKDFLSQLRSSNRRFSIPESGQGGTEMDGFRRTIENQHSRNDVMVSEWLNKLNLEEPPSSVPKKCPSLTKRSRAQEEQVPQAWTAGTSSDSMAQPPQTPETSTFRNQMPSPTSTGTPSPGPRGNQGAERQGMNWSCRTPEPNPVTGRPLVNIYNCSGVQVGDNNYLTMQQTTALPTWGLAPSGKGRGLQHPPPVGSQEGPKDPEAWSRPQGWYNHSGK
GFP-tagged RIP3 kinase domain: residues 21-287 of Q9Y572
UniProt Q14258: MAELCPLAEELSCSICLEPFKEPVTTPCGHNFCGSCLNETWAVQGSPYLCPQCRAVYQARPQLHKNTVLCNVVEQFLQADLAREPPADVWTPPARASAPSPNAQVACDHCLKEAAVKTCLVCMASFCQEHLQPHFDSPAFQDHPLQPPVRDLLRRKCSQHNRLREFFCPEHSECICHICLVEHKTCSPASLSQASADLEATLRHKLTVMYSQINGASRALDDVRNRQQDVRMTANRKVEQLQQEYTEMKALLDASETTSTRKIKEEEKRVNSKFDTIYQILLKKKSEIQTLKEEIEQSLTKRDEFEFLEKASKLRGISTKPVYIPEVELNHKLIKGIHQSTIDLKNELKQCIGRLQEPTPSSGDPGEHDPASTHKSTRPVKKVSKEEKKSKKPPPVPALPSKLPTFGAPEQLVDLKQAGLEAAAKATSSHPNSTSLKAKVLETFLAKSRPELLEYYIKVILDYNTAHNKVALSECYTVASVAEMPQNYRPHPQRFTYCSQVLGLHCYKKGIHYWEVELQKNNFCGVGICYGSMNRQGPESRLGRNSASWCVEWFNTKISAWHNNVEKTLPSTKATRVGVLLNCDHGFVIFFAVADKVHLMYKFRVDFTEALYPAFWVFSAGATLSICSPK
His-tagged TRIM25 with the SPRY domain deleted: residues 1-388 of Q14258
UniProt Q13546: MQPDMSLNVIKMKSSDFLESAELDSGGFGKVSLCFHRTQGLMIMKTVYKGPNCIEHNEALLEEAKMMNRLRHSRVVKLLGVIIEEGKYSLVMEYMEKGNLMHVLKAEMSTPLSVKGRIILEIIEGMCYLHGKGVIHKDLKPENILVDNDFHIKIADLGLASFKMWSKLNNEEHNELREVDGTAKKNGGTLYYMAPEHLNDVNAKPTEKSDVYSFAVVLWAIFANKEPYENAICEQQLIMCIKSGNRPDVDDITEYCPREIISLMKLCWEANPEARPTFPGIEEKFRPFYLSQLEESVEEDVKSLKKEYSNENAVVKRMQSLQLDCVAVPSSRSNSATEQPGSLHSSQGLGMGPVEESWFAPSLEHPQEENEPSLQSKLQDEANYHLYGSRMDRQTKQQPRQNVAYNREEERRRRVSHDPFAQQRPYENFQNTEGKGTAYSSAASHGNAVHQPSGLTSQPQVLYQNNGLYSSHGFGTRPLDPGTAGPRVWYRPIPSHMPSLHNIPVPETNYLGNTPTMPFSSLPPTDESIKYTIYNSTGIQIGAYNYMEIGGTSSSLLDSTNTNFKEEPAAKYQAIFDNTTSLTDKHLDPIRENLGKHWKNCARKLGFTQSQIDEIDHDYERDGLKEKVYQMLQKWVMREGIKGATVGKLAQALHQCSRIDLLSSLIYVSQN

Assays:
FLAG-tagged RIP3 (human) [1] = biological target: FLAG-tagged RIP3 (human) (UniProt Q9Y572); assay: co-IP; FLAG-tagged RIP3 transfected into HeLa and HEK293T cells; immunoprecipitation with the RIP3 antibody, blot with TRIM25 and RIP3 antibodies; IP buffer 1% NP-40, 150 mM NaCl, 1 mM EDTA, 50 mM Tris-HCl pH 7.5, overnight at 4 °C
[2] = biological target: GFP-tagged RIP3 kinase domain (human) (UniProt Q9Y572); assay: co-IP; GFP-tagged RIP3 or its mutants transfected into HEK293T cells; lysates immunoprecipitated with an anti-GFP antibody
[3] = biological target: GFP-tagged RIP3 (full-length) (human) (UniProt Q9Y572); assay: as above
FLAG-tagged RIP3 (human) [4] = biological target: FLAG-tagged RIP3 (human) (UniProt Q9Y572); assay: co-IP; FLAG-tagged RIP3 co-transfected with Myc-tagged TRIM25 or TRIM25^CS into HeLa cells, treated with 10 uM MG132; the precipitating antibody is not stated
[5] = biological target: His-tagged TRIM25 (human) (UniProt Q14258); assay: co-IP; His-tagged TRIM25 or its mutants and GFP-tagged RIP3 co-transfected into HeLa cells; lysates immunoprecipitated with an anti-His antibody
[6] = biological target: His-tagged TRIM25 with the SPRY domain deleted (human) (UniProt Q14258); assay: as above
[7] = biological target: endogenous TRIM25 (human (endogenous in HeLa, HEK293T, HT-29)) (UniProt Q14258); assay: co-IP; endogenous proteins in HT-29 cells; immunoprecipitation with TRIM25 or RIP3 antibodies; untreated or primed with TNF/Z-VAD/Smac-mimetic (TSZ) for indicated hours (6 h in Fig. 1g); IP buffer 1% NP-40, 150 mM NaCl, 1 mM EDTA, 50 mM Tris-HCl pH 7.5
[8] = biological target: endogenous TRIM25 (human (endogenous in HeLa, HEK293T, HT-29)) (UniProt Q14258); assay: as above; remark: listed apart in the source

Molecule: endogenous TRIM25 (from UniProt Q14258 1-630)
- binding (FLAG-tagged RIP3 (human) [1]): binds
- binding [2]: no binding
- binding [3]: binds

Molecule: Myc-tagged TRIM25 (from UniProt Q14258 1-630)
- binding (FLAG-tagged RIP3 (human) [4]): binds

Molecule: GFP-tagged RIP3 (full-length) (from UniProt Q9Y572 1-518)
- binding [5]: binds
- binding [6]: no binding

Molecule: Myc-tagged TRIM25 C50S/C53S (from UniProt Q14258 1-630)
- binding (FLAG-tagged RIP3 (human) [4]): binds

Molecule: endogenous RIP1 (from UniProt Q13546 1-671)
- binding [7]: no binding

Molecule: endogenous RIP3 (from UniProt Q9Y572 1-518)
- binding [7]: binds

B1: endogenous MLKL (protein, UniProt Q8NB16 1-471)
chain: MENLKHIITLGQVIHKRCEEMKYCKKQCRRLGHRVLGLIKPLEMLQDQGKRSVPSEKLTTAMNRFKAALEEANGEIEKFSNRSNICRFLTASQDKILFKDVNRKLSDVWKELSLLLQVEQRMPVSPISQGASWAQEDQQDADEDRRAFQMLRRDNEKIEASLRRLEINMKEIKETLRQYLPPKCMQEIPQEQIKEIKKEQLSGSPWILLRENEVSTLYKGEYHRAPVAIKVFKKLQAGSIAIVRQTFNKEIKTMKKFESPNILRIFGICIDETVTPPQFSIVMEYCELGTLRELLDREKDLTLGKRMVLVLGAARGLYRLHHSEAPELHGKIRSSNFLVTQGYQVKLAGFELRKTQTSMSLGTTREKTDRVKSTAYLSPQELEDVFYQYDVKSEIYSFGIVLWEIATGDIPFQGCNSEKIRKLVAVKRQQEPLGEDCPSELREIIDECRAHDPSVRPSVDEILKKLSTFSK
- binding [8]: no binding
